The structures appear in SMILES notation. Among all 5,400 compounds or so, about 190 (3.5%) showed an effect of 50% or more. The list shows a part of the results.

For the test, the system named is Vero-E6. Put plainly: primary screen, phospholipidosis by LipidTOX staining; higher = more effect of the substance. The note with it: 10 µM. The method, boiled down: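 Drug-induced phospholipidosis detected with HCS LipidTOX Red reagent in Vero-E6 cells. Compounds tested at 10 μM, with amiodarone (10 μM) as positive control and DMSO (0.1 v/v %) as vehicle.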
Regarding `O=C(/C=C/C=C/c1ccc2c(c1)OCO2)N1CCCCC1`, the result_ITMP is reported as 5.03%.

For `COc1ccc2[nH]c(C(=O)c3ccccc3)cc2c1`, the result_ITMP worked out at 3.11%.

Turning to `O=c1c2ccccc2nc2n1CCc1c-2[nH]c2ccccc12`, the result_ITMP is on record as -5.8%.

In the case of `CN(C)c1ccccc1CN1CCCN(Cc2ccccc2N(C)C)C1c1ccncc1`, the result_ITMP was -1.59%.

`CC(=O)NCCC(=O)N[C@@H](Cc1cnc[nH]1)C(=O)O`: the result_ITMP is -1.53%.

Regarding `CCc1c(C(=O)C(N)=O)c2c(OCC(=O)O)cccc2n1Cc1ccccc1`, the result_ITMP was -6.74%.

Take `CCN(CC)S(=O)(=O)c1ccc(C(=O)O)cc1`: the result_ITMP turned out to be 3.91%.

For the molecule `Cc1cc(C)nc(SCC(=O)Nc2ncc(Cc3cccc4ccccc34)s2)n1`, the result_ITMP is reported as -7.9%.

In the case of `Oc1cc2c(c(Cl)c1O)CCNCC2c1ccccc1` (centres unmarked), the result_ITMP is -2.2%.

For `O=C(O)CCCCC1CCSS1` (centres unmarked), the result_ITMP is reported as -8.17%.

Regarding `COCC(=O)O[C@]1(CCN(C)CCCc2nc3ccccc3[nH]2)CCc2cc(F)ccc2[C@@H]1C(C)C`, the result_ITMP was determined as 88.2%.

On to `O=C(CS(=O)C(c1ccccc1)c1ccccc1)NO` (centres unmarked), for which the result_ITMP is -2.43%.

Take `COc1ccccc1N1CCN(CCCNc2cc(=O)n(C)c(=O)n2C)CC1`: the result_ITMP is -1.86%.

On to `CN1C[C@@H]2c3ccccc3Oc3ccc(Cl)cc3[C@H]2C1.CN1C[C@H]2c3ccccc3Oc3ccc(Cl)cc3[C@@H]2C1`, for which the result_ITMP was found to be 65.2%.

Take `O=C(Nc1cccc(Nc2ncc(Br)c(NCCc3cnc[nH]3)n2)c1)N1CCCC1`: the result_ITMP is -3.46%.

With `CN/C(=N\c1ccc(C2=NNC(=O)CC2C)cc1)NC#N` (centres unmarked), the result_ITMP is -1.8%.

For the molecule `CC(C)(O)CS(=O)(=O)Nc1ccc2c(c1)CCN(C(=O)COc1cccnc1)C2`, the result_ITMP was -1.59%.

`N#Cc1cc2c(OCC(O)CN3CCN(C(c4ccccc4)c4ccccc4)CC3)cccc2[nH]1` (racemic): the result_ITMP stood at 25.1%.

On to `COc1cccc(-c2cc(F)ccc2[C@H]2Cc3nc(N)nc(C)c3C(=O)N2)n1`, for which the result_ITMP is -3.17%.

Turning to `CC(C)S(=O)(=O)NC[C@H](C)c1ccc(-c2ccc(CCNS(C)(=O)=O)cc2)cc1`, the result_ITMP is listed as -1.01%.

With `COc1nc(N)nc2c1ncn2[C@@H]1O[C@H](CO)[C@@H](O)[C@@H]1O`, the result_ITMP is reported as -10.5%.

Take `OC[C@H]1O[C@H](O[C@H]2O[C@H](CO)[C@@H](O)[C@H](O)[C@H]2O)[C@H](O)[C@@H](O)[C@@H]1O`: the result_ITMP is reported as -2.3%.

With `CN(C)CCCn1cc(C2=C(c3c[nH]c4ccccc34)C(=O)NC2=O)c2ccccc21`, the result_ITMP was -0.11%.

On to `COc1ccccc1N1CCN(CCn2c(=O)[nH]c3c([nH]c4ccccc43)c2=O)CC1`, for which the result_ITMP is on record as -1.9%.

Regarding `CSc1ccccc1Nc1nc(N2CCNCC2)nc2c(NCC3CC3)ncnc12`, the result_ITMP was 79.3%.

Turning to `Cn1c(=O)c2c(ncn2CCO)n(C)c1=O`, the result_ITMP is listed as 0.64%.

`CCc1cnn2c(NCc3ccc[n+]([O-])c3)cc(N3CCCC[C@H]3CCO)nc12`: the result_ITMP was -2.31%.

Regarding `Cn1cnc([N+](=O)[O-])c1Sc1[nH]cnc2ncnc1-2`, the result_ITMP was -1.78%.

`O=C1NC(=O)[C@@H](c2cn3c4c(cccc24)CCC3)[C@@H]1c1c[nH]c2ccccc12`: the result_ITMP is 1.44%.

Turning to `CC(C)(COP(=O)([O-])OP(=O)([O-])OC[C@H]1O[C@@H](n2cnc3c(N)ncnc32)[C@H](O)[C@@H]1OP(=O)([O-])O)[C@@H](O)C(=O)NCCC(=O)NCCS`, the result_ITMP is listed as -4.31%.

Take `CC(=O)O[C@H]1CC[C@@]2(C)C(=CC(=O)[C@@H]3[C@@H]2CC[C@]2(C)C(=O)CC[C@@H]32)C1`: the result_ITMP is -7.66%.

In the case of `c1ccc(CC(c2ccccc2)N2CCCCC2)cc1` (racemic), the result_ITMP was determined as 6.03%.

For the molecule `CC(=O)Nc1ccc(C(=O)NC(C)(C)C)cc1`, the result_ITMP is on record as -9.36%.

Turning to `O=[N+]([O-])c1cccc2c(Br)n[nH]c12`, the result_ITMP is on record as -2.56%.

`Cc1cc(C)c(C2=NOC3C4CCC(C4)C23)c(C)c1` (centres unmarked): the result_ITMP is on record as -1.19%.

Regarding `CC(=O)N[C@H]1CSSC[C@@H](C(N)=O)NC(=O)[C@H](C(C)C)NC(=O)[C@H](C)NC(=O)[C@H](Cc2cnc[nH]2)NC1=O`, the result_ITMP is 0.65%.

With `C[C@@]1(c2cc(-c3cncnc3)c(F)cc2F)CCSC(N)=N1`, the result_ITMP worked out at 1.83%.

On to `CCc1ccc(/C=C/C(=O)Nc2ccc(C(C)=O)cc2)o1`, for which the result_ITMP is -2.21%.

Take `CCCN1CCN(c2ccc(C(=O)NC3(C(=O)NCC#N)CCCCC3)cc2)CC1`: the result_ITMP is given as -1.08%.

`O=S(=O)([O-])CCCS(=O)(=O)[O-]`: the result_ITMP is recorded as -2.16%.

On to `CN1CCc2cc3c(cc2C1O)OCO3` (centres unmarked), for which the result_ITMP was -1.84%.

As to `CCCCCCCCCCCCCCCCCCCCCC(=O)Nc1ccn([C@@H]2O[C@H](CO)[C@@H](O)[C@@H]2O)c(=O)n1`, the result_ITMP was -5.92%.

As for `CC(C)NCC(O)c1cc(O)cc(O)c1` (centres unmarked), the result_ITMP is recorded as -4.82%.

Regarding `CC(C)NCC(O)COc1cccc2[nH]c3ccccc3c12` (centres unmarked), the result_ITMP was found to be 29%.

As to `CC(C)C(=O)c1ccc(O)c(O)c1`, the result_ITMP is -1.47%.

As for `CCN(CC)CCCCC(NC(=O)c1ccc([N+](=O)[O-])cc1)c1ccccc1` (centres unmarked), the result_ITMP came out at 16.1%.

In the case of `CCCCCCCCCCCCCCSCC(=O)O`, the result_ITMP was found to be 0.32%.

For `CCCn1cnc2c1c(=O)n(CCCCC(C)=O)c(=O)n2C`, the result_ITMP came out at 1.24%.

Consider `O=C(O)CN(CCN(CC(=O)O)CC(=O)O)CCN(CC(=O)O)CC(=O)O`, for which the result_ITMP is recorded as -0.07%.

On to `CC(C)(CO)Cc1cc(C(C)(C)C)c(O)c(C(C)(C)C)c1`, for which the result_ITMP was -4.24%.

In the case of `Fc1ccc(C(c2ccccc2)(c2ccccc2F)n2ccnc2)cc1` (centres unmarked), the result_ITMP is -0.78%.

Consider `NC(=O)CN1CC[C@@H](NC(=O)[C@@H]2CCCN2)C1=O`, for which the result_ITMP is on record as 0.41%.

Turning to `COc1cc(CCc2cc(NC(=O)c3ccc(N4C[C@@H](C)N[C@@H](C)C4)cc3)n[nH]2)cc(OC)c1`, the result_ITMP is recorded as 30.8%.

`O/N=C/c1cc[n+](COC[n+]2ccc(/C=N/O)cc2)cc1`: the result_ITMP is -1.91%.

Turning to `C[n+]1ccccc1/C=N/O`, the result_ITMP is -6.44%.

With `CCOc1cc(N)c(Cl)cc1C(=O)NCC1CN(Cc2ccc(F)cc2)CCO1` (centres unmarked), the result_ITMP came to 0.46%.

On to `Cc1cccc(Nc2ccccc2C(=O)O)c1C`, for which the result_ITMP is on record as -1.77%.

For `COc1ccc2[nH]cc(C3=CCNCC3)c2c1`, the result_ITMP is listed as -0.41%.

Take `O=C(O)CCC(=O)C(=O)O`: the result_ITMP is -1.29%.

`CC(C)Nc1nc2cc(Cl)c(Cl)cc2n1[C@H]1O[C@@H](CO)[C@H](O)[C@@H]1O`: the result_ITMP amounted to 0.2%.

With `CN(CCOc1ccc(C[C@H](Nc2ccccc2C(=O)c2ccccc2)C(=O)O)cc1)c1ccccn1`, the result_ITMP was -4.52%.

On to `NC(N)=NC(=O)c1cnn(-c2cccc3ncccc23)c1C1CC1`, for which the result_ITMP is given as -1.94%.

Regarding `O=C1OC(CN2CCOCC2)CN1/N=C/c1ccc([N+](=O)[O-])o1` (centres unmarked), the result_ITMP amounted to 8.14%.

Regarding `CC[n+]1c(-c2ccccc2)c2cc(N)ccc2c2ccc(N)cc21`, the result_ITMP is given as -2.9%.

Turning to `Cc1ccsc1C(=CCCN1CCC[C@@H](C(=O)O)C1)c1sccc1C`, the result_ITMP worked out at 0.53%.

On to `NP(N)(=O)NC(=O)c1ccc(F)cc1`, for which the result_ITMP is -5.79%.

As to `O=C1c2c(O)cc(O)cc2O[C@H](c2cc(O)c(O)c(O)c2)[C@H]1O`, the result_ITMP is on record as -1.12%.

`Cc1ccc(-c2c(-c3nn(C)c4ncnc(N5CC[C@H](N6CCCCC6)C5)c34)cnn2C)cc1`: the result_ITMP is on record as 24.4%.

As to `CC(C)(N)Cc1ccccc1`, the result_ITMP is recorded as -1.25%.

For `CCOC(=O)c1ncc2[nH]c3ccc(OCc4ccccc4)cc3c2c1COC`, the result_ITMP is -9.89%.

Turning to `Cc1cc(C)c(CNC(=O)c2cc(-c3ccc(N4CCN(C)CC4)nc3)cc3c2c(C)cn3C(C)C)c(=O)[nH]1`, the result_ITMP is given as 33.8%.

For `CNCCCN1c2ccccc2CCc2ccccc21`, the result_ITMP was determined as 36.6%.

As to `CCN(CC)CCOc1ccccc1C(=O)CCc1ccccc1`, the result_ITMP is listed as 30.6%.

`CC(C)(C(=O)NCC(F)(F)C(F)(F)F)C(=O)N[C@@H]1C(=O)Nc2ccccc2-c2ccccc21`: the result_ITMP is recorded as -1.1%.

Regarding `O=C1CCC(N2C(=O)c3ccccc3C2=O)C(=O)N1` (centres unmarked), the result_ITMP is on record as -9.75%.

With `C[C@H](N)C(=O)N[C@@H](C)P(=O)(O)O`, the result_ITMP is listed as 8.46%.

For `O=C(Nc1ccc(N2CCC(C(=O)N3CCOCC3)CC2)cc1)c1cnc(Oc2ccccc2)nc1`, the result_ITMP is -4.57%.

As to `O=C1NCCN1CCN1CCC(c2cn(-c3ccc(F)cc3)c3ccc(Cl)cc23)CC1`, the result_ITMP was 38.8%.

For the molecule `c1cc2c(c(N3CCNCC3)c1)OCCO2`, the result_ITMP was -1.86%.

With `O=C(O)c1ccc(N2N=C(Cc3ccccc3)/C(=C\c3ccc(-c4ccccc4F)o3)C2=O)cc1`, the result_ITMP is -5.6%.

As to `c1cn2cc(-c3ccc4cn[nH]c4c3)nc(Nc3ccc(N4CCOCC4)cc3)c2n1`, the result_ITMP is -6.5%.

In the case of `O=C(O)c1cnn(-c2nc3cc(Cl)c(OC(F)(F)F)cc3[nH]2)c1`, the result_ITMP is -2.3%.

`CCC1=C[C@@H]2C[N@](C1)Cc1c([nH]c3ccccc13)[C@@](C(=O)OC)(c1cc3c(cc1OC)N(C)[C@H]1[C@@](O)(C(=O)OC)[C@H](OC(C)=O)[C@]4(CC)C=CCN5CC[C@]31[C@@H]54)C2`: the result_ITMP is recorded as 7.31%.

Regarding `COc1ccc(C(=O)c2c(C)n(CCN3CCOCC3)c3ccccc23)cc1`, the result_ITMP was found to be 0.58%.

For the molecule `CCN(CC)CCNC(=O)COc1ccc(OC)cc1`, the result_ITMP was -4.1%.

For `CC(=O)OCC1=C(C(=O)O)N2C(=O)[C@@H](NC(=O)Cc3cccs3)[C@H]2SC1`, the result_ITMP turned out to be 0.66%.

With `COC(=O)c1csc(C(=O)c2c[nH]c3ccccc23)n1`, the result_ITMP was -2.95%.

With `CCOc1ccc(NC(=O)CC(C)O)cc1` (centres unmarked), the result_ITMP is on record as -6.27%.

With `C=CCn1c(=O)c2cnc(Nc3ccc(N4CCN(C)CC4)cc3)nc2n1-c1cccc(C(C)(C)O)n1`, the result_ITMP was 32.4%.

Regarding `Clc1ccc(C(Cn2ccnc2)OCc2csc3c(Cl)cccc23)c(Cl)c1` (centres unmarked), the result_ITMP was found to be 4.76%.

For the molecule `Clc1cccc(SC2CCNCC2)n1`, the result_ITMP was found to be 0.4%.

On to `CC(=O)N[C@@H]1C[C@H](O)[C@@H](CO)O[C@H]1O[C@H]1[C@H](O)[C@@H](O)[C@H](O)O[C@@H]1C(=O)[O-]`, for which the result_ITMP is on record as -0.41%.

The record behind these values is paper PMC13083723 (Patterns, 2026).
